Test results from US20120100130A1, “Novel Receptor Hetero-Dimers/-Oligomers” (DIMERIX BIOSCIENCE PTY LTD., priority 2009, published 2012).

Tests used:
CCR2-AT1R Heterodimer = target: T1, CCR2-AT1R Heterodimer (Homo sapiens, UniProt P30556+P41597); assay: eBRET beta-arrestin 2 recruitment, cells expressing AT1R/Rluc8 and barr2/Venus with CCR2; assay type: cell-based; conditions: 10^−7M MCP1; HEK293FT cells co-expressing AT1R/Rluc8, barr2/Venus and CCR2; 37 C
T1 construct: expressed in transfected cells; host or cells: HEK293FT

CCR2-AT2R Heterodimer = target: T2, CCR2-AT2R Heterodimer (Homo sapiens, UniProt P41597+P50052); assay: eBRET beta-arrestin 2 recruitment, cells expressing AT2R/Rluc8 and barr2/Venus with CCR2; assay type: cell-based; conditions: 10^−7M MCP1; HEK293FT cells co-expressing AT2R/Rluc8, barr2/Venus and CCR2; after about 50 minutes
T2 construct: expressed in transfected cells; host or cells: HEK293FT

eBRET signal (ligand-induced BRET ratio) (CCR2-AT1R Heterodimer): approximately 0.05
eBRET signal (ligand-induced BRET ratio) (CCR2-AT2R Heterodimer): approximately 0.16
Substance: monocyte chemotactic protein-1 [MCP1]
